From the supplement of paper PMC3334620
The full ranking holds about 33,000 sequences; the median of “E-score (-0.5 to 0.5)” is about -0.043, and the highest 2% start at about 0.37. Some of the results follow.

Target: T1, Upc2 (UniProt Q12151)
T1 sequence: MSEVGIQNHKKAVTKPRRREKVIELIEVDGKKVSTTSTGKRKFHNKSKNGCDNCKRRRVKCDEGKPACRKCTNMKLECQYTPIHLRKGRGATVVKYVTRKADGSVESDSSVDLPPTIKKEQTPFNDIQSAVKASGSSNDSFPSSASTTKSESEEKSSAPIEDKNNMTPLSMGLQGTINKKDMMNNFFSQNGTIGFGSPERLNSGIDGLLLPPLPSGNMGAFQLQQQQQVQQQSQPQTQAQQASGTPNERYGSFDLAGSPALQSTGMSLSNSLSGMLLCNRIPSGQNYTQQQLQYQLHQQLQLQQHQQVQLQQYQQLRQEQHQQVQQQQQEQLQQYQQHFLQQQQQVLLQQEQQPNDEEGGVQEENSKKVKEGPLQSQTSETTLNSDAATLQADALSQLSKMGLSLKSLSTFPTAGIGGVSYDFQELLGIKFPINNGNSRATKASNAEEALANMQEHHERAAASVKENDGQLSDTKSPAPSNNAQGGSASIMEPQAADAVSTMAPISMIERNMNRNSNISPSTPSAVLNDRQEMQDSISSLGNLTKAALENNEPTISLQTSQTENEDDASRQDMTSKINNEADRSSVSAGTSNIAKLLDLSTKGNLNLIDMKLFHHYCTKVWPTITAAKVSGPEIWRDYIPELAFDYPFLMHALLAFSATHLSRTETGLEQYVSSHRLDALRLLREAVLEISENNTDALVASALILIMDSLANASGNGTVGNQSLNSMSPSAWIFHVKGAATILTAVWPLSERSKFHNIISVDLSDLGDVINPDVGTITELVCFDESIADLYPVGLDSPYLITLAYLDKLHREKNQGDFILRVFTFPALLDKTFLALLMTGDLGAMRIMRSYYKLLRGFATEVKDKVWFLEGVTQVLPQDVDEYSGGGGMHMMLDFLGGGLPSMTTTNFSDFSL
Test: PBM E-score (8-mer binding enrichment) (E-score (-0.5 to 0.5)); higher = stronger / more preferred TF binding; most listed sequences are background and not binding sites
Conditions: protein concentration: 200 nM; construct: GST-full length
Procedure, shortened: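 Bound GST-tagged yeast transcription factors, applied at about 100-200 nM to double-stranded universal all-10-mer Agilent arrays, were detected with fluorescent anti-GST. Scans were normalised with masliner. A modified Wilcoxon-Mann-Whitney statistic, the E-score, was assigned to each ungapped eight-base word pooled with its reverse complement by the Universal PBM Analysis Suite.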

Q: Which “PBM E-score” value does the source give for ACAATGGC here?
A: 0.0891

Q: Which “PBM E-score” value does the source give for GTACTGAA here?
A: 0.193

Q: For CTGGCCGA, which “PBM E-score” value is on record?
A: -0.0256

Q: CAATCATG was tested. Which “PBM E-score” value did it give?
A: -0.0906

Q: How did the “PBM E-score” value turn out when ACCATGCA was run?
A: -0.084

Q: With GATTCGCA as the sequence, how does the “PBM E-score” value read?
A: 0.131

Q: CAATCATC was tested. Which “PBM E-score” value did it give?
A: -0.0932

Q: How did the “PBM E-score” value turn out when GCGAGACA was run?
A: 0.00192

Q: Which “PBM E-score” value does the source give for AGTTCTGG here?
A: -0.111

Q: Which “PBM E-score” value does the source give for ACCGCCAT here?
A: -0.125

Q: For AAGCCCAC, which “PBM E-score” value is on record?
A: -0.0729

Q: Which “PBM E-score” value does the source give for CTTCGCCA here?
A: -0.2

Q: For ACGTCCCG, which “PBM E-score” value is on record?
A: 0.0323

Q: GATAGGCC was tested. Which “PBM E-score” value did it give?
A: -0.146

Q: With GATTACCC as the sequence, how does the “PBM E-score” value read?
A: -0.141

Q: Which “PBM E-score” value does the source give for CAAAATCG here?
A: 0.0182

Q: How did the “PBM E-score” value turn out when GACCCGAA was run?
A: -0.0162

Q: For CCTAAGGC, which “PBM E-score” value is on record?
A: -0.355

Q: Which “PBM E-score” value does the source give for AGATATGC here?
A: -0.186

Q: Which “PBM E-score” value does the source give for AAGCGTCC here?
A: -0.124

Q: How did the “PBM E-score” value turn out when CAGCAGAG was run?
A: -0.188

Q: How did the “PBM E-score” value turn out when GCTGGCCC was run?
A: -0.229

Q: Which “PBM E-score” value does the source give for CTTTACAC here?
A: 0.12

Q: AAATCCTC was tested. Which “PBM E-score” value did it give?
A: -0.209

Q: How did the “PBM E-score” value turn out when ATAACTCC was run?
A: -0.0656

Q: For TCGTTGAA, which “PBM E-score” value is on record?
A: 0.328

Q: AAGGTACA was tested. Which “PBM E-score” value did it give?
A: -0.0721

Q: For AAAAGTCA, which “PBM E-score” value is on record?
A: -0.0856

Q: Which “PBM E-score” value does the source give for CGCTAAAG here?
A: 0.146

Q: How did the “PBM E-score” value turn out when ACTTGTGC was run?
A: -0.116

Q: How did the “PBM E-score” value turn out when CAAAGAGA was run?
A: -0.127

Q: With ATGGTCAA as the sequence, how does the “PBM E-score” value read?
A: 0.0476

Q: CGCAGACA was tested. Which “PBM E-score” value did it give?
A: -0.0682

Q: How did the “PBM E-score” value turn out when CATAGTGA was run?
A: -0.0206

Q: With CATCCCAG as the sequence, how does the “PBM E-score” value read?
A: -0.0709

Q: Which “PBM E-score” value does the source give for ATATTCCA here?
A: -0.00152

Q: With CATATACA as the sequence, how does the “PBM E-score” value read?
A: 0.05

Q: With CTAGGTAC as the sequence, how does the “PBM E-score” value read?
A: 0.0119

Q: Which “PBM E-score” value does the source give for GGATGCCC here?
A: -0.0726

Q: With ACCGAGCT as the sequence, how does the “PBM E-score” value read?
A: 0.186

Q: With GCGCTGAC as the sequence, how does the “PBM E-score” value read?
A: -0.4

Q: CTGCACCC was tested. Which “PBM E-score” value did it give?
A: 0.0171

Q: For ATGACGGC, which “PBM E-score” value is on record?
A: -0.143

Q: Which “PBM E-score” value does the source give for CGAGGAAA here?
A: 0.026

Q: Which “PBM E-score” value does the source give for CTATTTTC here?
A: -0.111

Q: ACTTAATC was tested. Which “PBM E-score” value did it give?
A: 0.0034

Q: Which “PBM E-score” value does the source give for ACGATTGC here?
A: 0.266

Q: GTCACCTA was tested. Which “PBM E-score” value did it give?
A: -0.156

Q: GTCAGTCA was tested. Which “PBM E-score” value did it give?
A: -0.217

Q: CTGTATAC was tested. Which “PBM E-score” value did it give?
A: 0.281

Q: Which “PBM E-score” value does the source give for GTACAGCA here?
A: 0.299

Q: ATACACAT was tested. Which “PBM E-score” value did it give?
A: 0.0375

Q: With ACAGATAC as the sequence, how does the “PBM E-score” value read?
A: 0.174

Q: With AGGTTTTC as the sequence, how does the “PBM E-score” value read?
A: 0.119

Q: Which “PBM E-score” value does the source give for AGCCTAGG here?
A: -0.266

Q: With ACCTTAAA as the sequence, how does the “PBM E-score” value read?
A: 0.0805

Q: How did the “PBM E-score” value turn out when AATTCGGT was run?
A: 0.248

Q: With GGCATCAC as the sequence, how does the “PBM E-score” value read?
A: -0.238

Q: With GGTATCAC as the sequence, how does the “PBM E-score” value read?
A: -0.126

Q: CATTATCG was tested. Which “PBM E-score” value did it give?
A: 0.194

Q: Which “PBM E-score” value does the source give for ATCGGTCA here?
A: 0.0141

Q: With GACGGTTA as the sequence, how does the “PBM E-score” value read?
A: -0.116

Q: How did the “PBM E-score” value turn out when GAATAATA was run?
A: 0.151

Q: With ACAAGGAT as the sequence, how does the “PBM E-score” value read?
A: -0.148

Q: How did the “PBM E-score” value turn out when CTACGTAC was run?
A: 0.305

Q: How did the “PBM E-score” value turn out when ACGGAACC was run?
A: 0.24

Q: With CTGGTGAA as the sequence, how does the “PBM E-score” value read?
A: -0.22

Q: For CGTCCCCA, which “PBM E-score” value is on record?
A: -0.0614

Q: How did the “PBM E-score” value turn out when GGATTTGA was run?
A: 0.0631

Q: With CTCTGCAC as the sequence, how does the “PBM E-score” value read?
A: -0.0204

Q: How did the “PBM E-score” value turn out when AAAGCACT was run?
A: -0.0357

Q: Which “PBM E-score” value does the source give for AATACGCC here?
A: 0.00457

Q: With CCGCTATC as the sequence, how does the “PBM E-score” value read?
A: -0.0602

Q: AAAGCGAC was tested. Which “PBM E-score” value did it give?
A: 0.145

Q: Which “PBM E-score” value does the source give for ATAAAAAG here?
A: 0.0686

Q: How did the “PBM E-score” value turn out when GGGAATAA was run?
A: 0.0576

Q: How did the “PBM E-score” value turn out when CCATCGCC was run?
A: -0.267

Q: How did the “PBM E-score” value turn out when CACGGTGC was run?
A: -0.0595

Q: ACGACCCG was tested. Which “PBM E-score” value did it give?
A: 0.285

Q: Which “PBM E-score” value does the source give for ACGGGGGA here?
A: 0.0614

Q: Which “PBM E-score” value does the source give for CCTATACA here?
A: 0.151
